{"source": "PubChem BioAssay AID686970", "about": "(National Center for Advancing Translational Sciences (NCATS), 2013)", "note": "In all, about 360,000 compounds went through this assay and about 6,000 (1.7%) were called active. Inconclusive means that the source gave no clear call. Such entries were picked first, then a sample of the others. The call rests on the fitted dose curve; in most records, active means well fitted cell-killing curve with a large enough effect; inconclusive means small, poorly fitted or top-dose-only effect, or effect the other way; inactive means flat fitted curve, though single readings scatter. Potencies of inconclusive entries are left out as doubtful fits. Potency means the concentration at half of the fitted maximal effect; tags describe the fitted curve by direction and shape."}
{"test": "qHTS for induction of synthetic lethality in tumor cells producing 2HG: qHTS for the HT-1080-NT fibrosarcoma cell line;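 further: NT is the 2HG producing partner of a matched IDH1 knockdown line; nearly all actives have a fitted effect of over 55% in size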;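 on activity, negative = less viability: 0% = DMSO-treated cells and -100% = media-only wells without cells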", "conditions": "HT-1080-NT fibrosarcoma viability, CellTiter-Glo ATP luminescence, 48 h; activity, negative = less viability: at 46.1 µM (top of the series) unless noted", "how_it_was_run": "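Toxicity toward the 2HG-producing NT line was scored as %Activity, normalised to DMSO and no-cell wells, from CellTiter-Glo luminescence after 48 hours' treatment.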"}
{"molecule": "CCNC(=S)N/N=C/c1ccc(OCCOc2ccccc2C)cc1", "activity, negative = less viability": "inconclusive: -28.8% [cytotoxic]"}
{"molecule": "COCCC1CCCCN1C(=O)c1cc(COc2ccc(C)nc2)on1", "note": "(stereo unspecified)", "Potency": "active: 20.6 µM"}
{"molecule": "Nc1sc(-c2ccccc2)cc1C(=O)NCCc1c[nH]c2ccccc12", "Potency": "inconclusive [cytotoxic, single point]"}
{"molecule": "CCc1ccc(C2CC(=O)N(c3cccc(F)c3)C3=C2C(=O)OC3)cc1", "note": "(stereo unspecified)", "activity, negative = less viability": "inactive: -0.451%"}
{"molecule": "COc1ccc(S(=O)(=O)N2CCN(c3ccc(C)cc3C)CC2)cc1OC", "activity, negative = less viability": "inactive: 2.24%"}
{"molecule": "CC1C(=O)N2CCCc3cc(NC(=O)C(=O)NCCc4c[nH]c5ccccc45)cc1c32", "note": "(stereo unspecified)", "Potency": "inconclusive [cytotoxic, single point]"}
{"molecule": "COc1cc(C(=O)c2cocc2C(=O)c2ccc3c(c2)OCO3)cc(OC)c1OC", "Potency": "active: 1.3 µM"}
{"molecule": "CCOC(=O)N1CCN(S(=O)(=O)c2ccc(C(=O)NNc3nc4c(C)cccc4s3)cc2)CC1", "Potency": "inconclusive [cytotoxic, single point]"}
{"molecule": "CCN(CC)S(=O)(=O)c1ccc(NCCCn2ccnc2)c([N+](=O)[O-])c1", "Potency": "inconclusive [cytotoxic, single point]"}
{"molecule": "CCC(=O)c1ccc2c(c1)OCCO2", "activity, negative = less viability": "inactive: 5.72%"}
{"molecule": "CCCn1c(N)c(C(=O)CSc2n[nH]c(-c3ccccc3F)n2)c(=O)n(C)c1=O", "activity, negative = less viability": "inactive: 0.543%"}
{"molecule": "C[C@H]1CN([C@@H](C)CO)C(=O)Cc2cc(NC(=O)CCC(F)(F)F)ccc2O[C@H]1CN(C)Cc1ccc(C(F)(F)F)cc1", "Potency": "inconclusive [cytotoxic, single point]"}
{"molecule": "CC(NC(=O)COc1ccccc1)C(=O)NCc1ccccc1Cl", "note": "(stereo unspecified)", "activity, negative = less viability": "inactive: -1.61% [at 9.24 µM]"}
{"molecule": "O=C(CSc1nc2ccccc2c(=O)n1CCCN1CCOCC1)Nc1ccc(F)c(Cl)c1", "Potency": "inconclusive [cytotoxic, single point]"}
{"molecule": "COc1cccc2nc3cc(C)c(C)cc3nc12", "Potency": "active: 18.4 µM"}
{"molecule": "Cc1ccc(S(=O)(=O)N2CCOC23CCN(C(=O)c2ccc(Cl)cc2Cl)CC3)cc1", "Potency": "inconclusive [cytotoxic, single point]"}
{"molecule": "COc1ccc(NS(=O)(=O)c2cc(NC(=O)c3nn(C)c(=O)c4ccccc34)ccc2OC)cc1", "Potency": "inconclusive [cytotoxic, single point]"}
{"molecule": "O=C1CS(=O)(=O)N(Cc2ccccc2F)c2ccc(Br)cc21", "Potency": "inconclusive [cytotoxic, single point]"}
{"molecule": "COc1cc(OC)cc(C2=Cc3ccccc3C(CC(=O)c3ccco3)N2c2ccc(-c3ccc(C(N)=O)cc3)cc2)c1", "note": "(stereo unspecified)", "Potency": "inconclusive [cytotoxic, single point]"}
{"molecule": "CC(C)(C)c1cc(C(=O)N/N=C/c2ccc(-c3ccccc3[N+](=O)[O-])o2)n[nH]1", "activity, negative = less viability": "inactive: -28%"}
{"molecule": "Cc1occc1C(=O)Nc1cc(C(C)(C)C)on1", "Potency": "inconclusive [cytotoxic, single point]"}
{"molecule": "O=C(Nc1cc(=O)[nH]c2nc(-c3ccc(Cl)cc3)nn12)c1ccccc1", "activity, negative = less viability": "inconclusive: 34.1%"}
{"molecule": "O=C(c1cc(Sc2ccc(Cl)cc2)nc2ccccc12)N1CCN(c2ccccn2)CC1", "Potency": "inconclusive [cytotoxic, partial curve]"}
{"molecule": "O=C1C=C(c2ccc3ncccc3c2)C[C@@H](c2ccc(Cl)cc2)C1", "Potency": "inconclusive [cytotoxic, single point]"}
{"molecule": "COc1ccc(/C=N/NC(=O)c2ccc(F)cc2)cc1CN1CCc2cc(OC)c(OC)cc2C1C", "note": "(stereo unspecified)", "Potency": "inconclusive [cytotoxic, single point]"}
{"molecule": "Cn1ccnc1Sc1cc(NCCCO)c([N+](=O)[O-])c2nonc12", "Potency": "active: 4.11 µM"}
{"molecule": "CCOc1ccccc1N1CCN(C(=O)c2cc(S(=O)(=O)N(C)C)ccc2N2CCCC2)CC1", "activity, negative = less viability": "inactive: -8.12%"}
{"molecule": "Cc1ccc(C)c(Oc2cc(NC(=O)CCCn3nc(C)c([N+](=O)[O-])c3C)cc([N+](=O)[O-])c2)c1", "Potency": "active: 16.4 µM"}
{"molecule": "O=C(COC(=O)CCC(=O)c1ccc(F)cc1)NCCc1ccccc1", "activity, negative = less viability": "inactive: 10%"}
{"molecule": "CCN1C(=O)/C(=C2\\SC(N3CCOCC3)=NC2=O)c2ccccc21", "activity, negative = less viability": "inactive: 14.2%"}
{"molecule": "CN1/C(=C\\P(=O)(N(C)C)N(C)C)C(C)(C)c2ccccc21", "Potency": "inconclusive [cytotoxic, single point]"}
{"molecule": "CCn1cc(S(=O)(=O)NCc2ccc(OC)cc2)cn1", "activity, negative = less viability": "inactive: 9.64%"}
{"molecule": "CC(=O)OCC(=O)[C@@]1(O)CC[C@H]2[C@@H]3CCC4=CC(=O)C=C[C@]4(C)[C@@]3(Cl)[C@@H](Cl)C[C@@]21C", "Potency": "inconclusive [rising, full curve, poor fit]"}
{"molecule": "O=[N+]([O-])c1cccc(N=NN(CCO)c2cccc([N+](=O)[O-])c2)c1", "Potency": "inconclusive [cytotoxic, single point]"}
{"molecule": "Cc1ccc(NC(=O)c2ccc(NS(=O)(=O)c3cccc4cccnc34)cc2)cc1", "Potency": "inconclusive [cytotoxic, partial curve]"}
{"molecule": "COc1ccc(OC)c(C(C[N+](=O)[O-])c2c(C)cc3ccccn23)c1", "note": "(stereo unspecified)", "Potency": "active: 23.1 µM"}
{"molecule": "COc1ccc2c(c1)OC(=O)CC2c1cc(OC)c(OC)c(OC)c1", "note": "(stereo unspecified)", "Potency": "inconclusive [cytotoxic, single point]"}
{"molecule": "COc1ccc(/C=N/NC(=O)CCn2cnc(-c3ccccc3)c2-c2ccccc2)cc1OC", "Potency": "active: 9.2 µM"}
{"molecule": "Brc1ccc(OCc2ccccc2)c(CNCc2ccncc2)c1", "Potency": "inconclusive [cytotoxic, single point]"}
{"molecule": "COc1ccc(Nc2cc(C(=O)N3CCc4ccccc4C3)c3ccccc3n2)c(OC)c1", "Potency": "inconclusive [cytotoxic, single point]"}
{"molecule": "CC(C)[C@H](NC(=O)OCc1ccccc1)C(=O)OCC(=O)N1C(C)CCCC1C", "note": "(stereo partly specified)", "activity, negative = less viability": "inactive: -2.34%"}
{"molecule": "CN(C(=O)COC(=O)Cn1cnc2ccccc21)C1CCCCC1", "activity, negative = less viability": "inactive: 0%"}
{"molecule": "O=C(NC(=O)N1CCN(c2cccc(Cl)c2)CC1)c1ccccc1", "Potency": "inconclusive [cytotoxic, full curve]"}
{"molecule": "COc1cccc(N2CCN(C(=O)c3cc4c(=O)n(Cc5ccccc5)ccc4nc3C)CC2)c1", "Potency": "inconclusive [cytotoxic, single point]"}
{"molecule": "C[C@]12c3[nH]c4cc(-c5ccco5)ccc4c3CCN1C(=O)[C@@H](CC(=O)NCCc1ccccn1)C[C@@H]2C(=O)N1CCOCC1", "activity, negative = less viability": "inactive: 10.4%"}
{"molecule": "CC(=O)c1ccc(NC(=O)C(C)OC(=O)/C=C/c2ccco2)cc1", "note": "(stereo unspecified)", "Potency": "active: 16.4 µM"}
{"molecule": "CCCOc1ccc(F)cc1-c1cc(C(=O)NCCOC)[nH]n1", "activity, negative = less viability": "inconclusive: 4.05%"}
{"molecule": "COc1ccc(C(=O)NCC2OCCc3ccccc32)cc1", "note": "(stereo unspecified)", "Potency": "inconclusive [rising, partial curve]"}
{"molecule": "O=C1/C(=C\\c2c(NCCOCCO)nc3ccccn3c2=O)SC(=S)N1Cc1ccco1", "Potency": "inconclusive [cytotoxic, partial curve]"}
{"molecule": "CCOC(=O)c1ccc(NC(=O)c2cccc3c2C(=O)N(CC2CCCO2)C3)cc1", "note": "(stereo unspecified)", "activity, negative = less viability": "inactive: -0.213%"}
{"molecule": "C[C@]12CCC(=O)C=C1CCC1C2CC[C@@]2(C)C1CCC21OCCO1", "note": "(stereo partly specified)", "Potency": "inconclusive [cytotoxic, single point]"}
{"molecule": "COc1ccccc1CNC(=O)c1ccccc1OCc1ccc(F)cc1", "activity, negative = less viability": "inactive: 3.27%"}
{"molecule": "Cc1ccc(S(=O)(=O)N(C)CC(=O)NC2CCCC2)cc1", "Potency": "inconclusive [rising, partial curve, poor fit]"}
{"molecule": "CN(c1cccc(NC(=O)c2ccc(CN3CCc4ccccc4C3)cc2)c1)S(C)(=O)=O", "Potency": "inconclusive [cytotoxic, partial curve]"}
{"molecule": "CCN(CC)c1ccc(NC(=O)/C=C/c2cc(Br)ccc2OC)cc1", "activity, negative = less viability": "inactive: 0.0764%"}
{"molecule": "OC(c1ccc(Cl)cc1)c1ncc(-c2ccc(Oc3ccccc3)cc2)[nH]1", "note": "(stereo unspecified)", "Potency": "active: 23.1 µM"}
{"molecule": "CC1(C(=O)NC2CCCC2)CCC(=O)N1CCCn1ccnc1", "note": "(stereo unspecified)", "activity, negative = less viability": "inactive: 9.82%"}
{"molecule": "CC(=O)N=c1sccn1CC(O)c1ccc(Br)cc1", "note": "(stereo unspecified)", "activity, negative = less viability": "inactive: -6.19%"}
{"molecule": "Cc1ccc(Cl)cc1N(CC(=O)Nc1cccc(N(C)S(C)(=O)=O)c1)S(C)(=O)=O", "Potency": "inconclusive [cytotoxic, partial curve]"}
{"molecule": "C=C(C)COc1ccc(-c2[nH]ncc2-c2ccccc2OC)c(O)c1", "Potency": "active: 18.4 µM"}
{"molecule": "c1ccc(-c2ccccc2OCCN2CCOCC2)cc1", "Potency": "inconclusive [rising, partial curve]"}
{"molecule": "Cc1ccc(O)c(N=Nc2nccs2)c1", "Potency": "inconclusive [cytotoxic, single point]"}
{"molecule": "Clc1ccc(OCCOCCN2CCc3ccccc3C2)c(Cl)c1", "Potency": "active: 23.1 µM"}
{"molecule": "NCCCn1c(C(=O)c2cc(Cl)c(N)c(Cl)c2)c2ccc([N+](=O)[O-])cc2[n+]1[O-]", "activity, negative = less viability": "inconclusive: -31.5% [cytotoxic]"}
{"molecule": "CC(C)(C)c1ccc(S(=O)(=O)N(CCCN2CCOCC2)Cc2cccs2)cc1", "Potency": "inconclusive [cytotoxic, single point]"}
{"molecule": "O=C(NNC(=S)Nc1cccc(C(F)(F)F)c1)c1ccccc1Cl", "Potency": "active: 18.4 µM"}
{"molecule": "Cc1ccc(-n2nc3c(c2NC(=O)c2cccs2)CSC3)cc1", "Potency": "inconclusive [cytotoxic, single point]"}
{"molecule": "CCC1CCCCN1C(=O)/C=C/c1ccc2c(c1)OCO2", "note": "(stereo unspecified)", "activity, negative = less viability": "inactive: 7.88%"}
{"molecule": "CCOC(=O)C1=C(COC(=O)CCOc2ccc(C)cc2)NC(=O)NC1C", "note": "(stereo unspecified)", "activity, negative = less viability": "inconclusive: -1.19% [cytotoxic]"}
{"molecule": "CCOc1ccc2nc(SCCNS(=O)(=O)c3ccccc3)sc2c1", "Potency": "inconclusive [cytotoxic, single point]"}
{"molecule": "CCC1CSC(Nc2ccc(C(=O)/C=C/c3ccc(OC)c(OC)c3)cc2)=N1", "note": "(stereo unspecified)", "Potency": "inconclusive [cytotoxic, single point]"}
